Results from PubChem BioAssay AID2675 (National Center for Advancing Translational Sciences (NCATS), 2010).
“And” between values parts separate entries of the source, which are not always exact repeats. Equal entries are not always repeated. Screen size: about 280,000 compounds; about 100 (0.036%) were called active. This list was built around the results that the source calls inconclusive (neither active nor inactive); the mix of calls is not that of the screen. Calls come from the whole dose curve; as a rule, active = well fitted inhibition curve with a large enough effect in the signal ratio, with a control signal flat (not every such curve was filed as active); inconclusive = small, poorly fitted or top-dose-only effect, or effect the other way, or a change in a side signal; inactive = no such curve, though single readings can be large or run the other way; the % refers to the signal ratio. Potencies of inconclusive entries are doubtful fits and often do not repeat. “Side channel” marks fits to a control or component signal instead of the main read-out.
% is set by controls: 0 for no effect and ±100 for the full control effect; potency is the fitted concentration of half-maximal effect; tags give direction and shape of the fitted curve or compound fluorescence and quenching.

These compounds were tested against Muscleblind-like protein 1 (Homo sapiens) (UniProt Q9NR56) (assay: qHTS Assay for Inhibitors of MBNL1-poly(CUG) RNA binding). Conditions: TR-FRET MBNL1-His/biotin-(CUG)12 binding, 665/545 ratio; activity change, negative = inhibition: at 57.5 µM (top of the series).
Sequence of UniProt Q9NR56 (Q9NR56 whole entry, looked up): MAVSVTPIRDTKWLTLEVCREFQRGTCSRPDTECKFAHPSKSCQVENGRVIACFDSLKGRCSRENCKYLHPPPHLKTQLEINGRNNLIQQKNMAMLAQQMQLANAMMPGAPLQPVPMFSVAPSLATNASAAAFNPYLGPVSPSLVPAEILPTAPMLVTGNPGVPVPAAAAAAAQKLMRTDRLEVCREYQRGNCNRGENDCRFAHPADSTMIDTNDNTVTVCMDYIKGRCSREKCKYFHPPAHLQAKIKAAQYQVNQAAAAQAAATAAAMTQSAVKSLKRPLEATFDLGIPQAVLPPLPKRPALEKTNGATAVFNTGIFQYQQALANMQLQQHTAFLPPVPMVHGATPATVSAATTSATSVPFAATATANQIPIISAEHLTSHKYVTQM
How it was run: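 Ratiometric TR-FRET (665 over 545 nm, excitation 340 nm) tracks disruption of MBNL1-His/biotin-(CUG)12 complex after 60 min at room temperature, with compounds at 92 nM to 58 uM final.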
For `CC(CNC(=O)CCn1ccc2cc(S(=O)(=O)N3CCCC3)ccc21)c1ccccc1` (centres undefined), the Potency was inconclusive: 0.631 µM [fluorescent, side channel, single point].
For `Cc1ccc([N+](=O)[O-])cc1S(=O)(=O)N(C)C`, the Potency was inconclusive: 14.1 µM [quencher, side channel, partial curve] and inconclusive: 8.91 µM [quencher, side channel, partial curve].
`CCN(CCCNC(=O)CN(C)S(=O)(=O)c1cccc2nsnc12)c1cccc(C)c1` was tested, and the Potency was inconclusive: 12.6 µM [quencher, side channel, partial curve].
For `CC(C)CC(=O)N=Nc1c(O)[nH]c2ccccc12`, the Potency was inconclusive: 11.2 µM [quencher, side channel, partial curve, poor fit].
`Cc1ccnc(NC(=O)c2ccccc2NC(=O)c2ccc(Cl)cc2Cl)c1` was tested, and the Potency was inconclusive: 39.8 µM [fluorescent, side channel, single point].
In the case of `CCn1ncc(CNC(=O)CCSc2nc(-c3ccco3)cc(C(F)(F)F)n2)c1C`, the Potency is reported as inconclusive: 14.1 µM [quencher, side channel, partial curve, poor fit].
In the case of `CN(C)CCCN1C(=O)c2cccc3cccc(c23)C1=O`, the Potency is reported as inconclusive: 10 µM [quencher, side channel, partial curve].
For `Oc1oc(-c2ccccc2)nc1C=Nc1ccccc1`, the Potency was inconclusive: 28.2 µM [quencher, side channel, partial curve].
`CCCCN1C=CC(=C2C(=O)c3ccccc3C2=O)C=C1` was tested, and the Potency was inconclusive: 6.31 µM [quencher, side channel, partial curve].
For `COc1ccc(CNC(=S)NC2CCCC2)cc1`, the “activity change, negative = inhibition” value was inactive: -3.97%.
With `Cc1ccc(/C=C/C(=O)c2ccc(O)cc2)cc1` the “activity change, negative = inhibition” value was inactive: -9.44%.
With `COc1ccccc1-c1noc(-c2cc(OC)c(OC)c(OC)c2)n1` the Potency was inconclusive: 0.562 µM [quencher, side channel, partial curve, poor fit].
In the case of `COc1cc(/C=N/NC(=O)c2ccncc2)c([N+](=O)[O-])cc1OC`, the Potency is reported as inconclusive: 3.16 µM [quencher, side channel, full curve].
With `CN(C)CCNC(=O)Cn1ccc2cc(S(=O)(=O)N3CCCCCC3)ccc21` the “activity change, negative = inhibition” value was inactive: 1.87%.
With `Cc1nn2c(nc1=O)SCC(c1ccccc1)=N2` the Potency was inconclusive: 12.6 µM [quencher, side channel, partial curve].
With `Cc1ccc(S(=O)(=O)N/N=C/c2ccc(O)cc2O)cc1[N+](=O)[O-]` the Potency was inconclusive: 31.6 µM [quencher, side channel, single point].
In the case of `O=C(Oc1ccc(Br)cc1C(=S)N1CCCCC1)c1cc([N+](=O)[O-])cc([N+](=O)[O-])c1`, the Potency is reported as inconclusive: 15.8 µM [quencher, partial curve].
`O=C(N/N=C1\CCS(=O)(=O)c2ccc(F)cc21)c1ccc([N+](=O)[O-])cc1` was tested, and the Potency was inconclusive: 10 µM [quencher, side channel, partial curve].
`C/C(CC(=O)Nc1cc(C)ccn1)=N\NC(=O)c1ccc(C(C)(C)C)cc1` was tested, and the “activity change, negative = inhibition” value was inactive: 0.814%.
`COc1cc(C(=S)N2CCOCC2)cc(OC)c1OC(=O)c1ccc([N+](=O)[O-])cc1[N+](=O)[O-]` was tested, and the Potency was inconclusive: 14.1 µM [quencher, side channel, partial curve].
`CCC(=O)O[C@]1(C(=O)CCl)[C@@H](C)C[C@H]2[C@@H]3CCC4=CC(=O)C=C[C@]4(C)[C@@]3(F)[C@@H](O)C[C@@]21C` was tested, and the “activity change, negative = inhibition” value was inactive: -27.1%.
With `Cc1nc(N)sc1C(=O)N/N=C/c1cccnc1` the Potency was inconclusive: 25.1 µM [quencher, side channel, single point].
For `CCOC(=O)c1nn(-c2ccccc2)c(=O)cc1SC(C)CC` (centres undefined), the Potency was inconclusive: 11.2 µM [quencher, partial curve].
For `CCC(=O)c1ccc(/C=C/c2nc3ccccc3n2C)o1`, the Potency was inconclusive: 14.1 µM [quencher, side channel, partial curve].
For `O=C(CNC(=O)/C=C/c1ccco1)N=Nc1c(O)[nH]c2ccccc12`, the Potency was inconclusive: 14.1 µM [quencher, side channel, partial curve].
In the case of `O=Cc1ccc2c(c1)CCN2Cc1ccccc1`, the Potency is reported as inconclusive: 14.1 µM [quencher, side channel, partial curve].
With `COc1cccc(-c2nn(-c3ccccc3)cc2C(=O)Nc2nccs2)c1` the “activity change, negative = inhibition” value was inactive: 0.0019%.
For `CC(C)(Cc1ccc(O)cc1)NC(=O)CC(=O)N/N=C/c1ccc([N+](=O)[O-])cc1`, the Potency was inconclusive: 11.2 µM [quencher, side channel, partial curve].
For `O=C(NC(=S)Nc1cccc2cc(O)ccc12)c1ccco1`, the Potency was inconclusive: 39.8 µM [quencher, side channel, single point].
For `COc1ccc(CN2C(=O)c3cccnc3C2=O)cc1S(=O)(=O)N1CCCC(C)C1` (centres undefined), the Potency was inconclusive: 15.8 µM [quencher, side channel, partial curve].
`CC1CCCCN1C(=S)NC(=O)c1cccs1` (centres undefined) was tested, and the “activity change, negative = inhibition” value was inactive: 6.94%.
In the case of `Cc1cc(C)c2ccc(=S)[nH]c2n1`, the Potency is reported as inconclusive: 25.1 µM [quencher, side channel, partial curve].
With `Cc1ccc(C)c(NC(=O)CCN2CC(C)CC(C)C2)c1` (centres undefined) the “activity change, negative = inhibition” value was inactive: 5.36%.
`O=C(C1CC=CCC1)N1CCN(C(=O)C2CC=CCC2)CC1` (centres undefined) was tested, and the “activity change, negative = inhibition” value was inactive: 0.713%.
For `CCN(CC)CCCNC(=O)CCn1nc(-c2ccc(Cl)cc2)ccc1=O`, the Potency was inconclusive: 17.8 µM [quencher, side channel, partial curve].
`CN(C(=O)CN1C(=O)S/C(=C\c2cccc(Cl)c2)C1=O)C1CCS(=O)(=O)C1` (centres undefined) was tested, and the Potency was inconclusive: 2.82 µM [quencher, side channel, full curve].
For `COc1cc(/C=C/C(=O)NCCc2ccc(S(N)(=O)=O)cc2)ccc1OCC#N`, the Potency was inconclusive: 17.8 µM [quencher, side channel, single point].
`O=C(O)c1cccc(NS(=O)(=O)c2ccc3c4c(cccc24)C(=O)N3)c1` was tested, and the Potency was inconclusive: 31.6 µM [quencher, side channel, single point].
For `C(=N\n1cncn1)/c1ccc(N2CCOCC2)cc1`, the Potency was inconclusive: 28.2 µM [quencher, side channel, partial curve].
With `CCCCc1ccc(NC(=O)C(C)CC)cc1` (centres undefined) the “activity change, negative = inhibition” value was inactive: 12.9%.
`O=C(CN1CCCCC1)Nc1cccc([N+](=O)[O-])c1` was tested, and the Potency was inconclusive: 14.1 µM [quencher, partial curve].
With `COc1ccc(/C=C2\SC(=S)N(CCCC(=O)Nc3ccc(C(=O)O)cc3)C2=O)cc1OC` the Potency was inconclusive: 39.8 µM [quencher, single point].
With `Cc1cc(N2C(=O)C(O)=C(C(=O)c3ccco3)C2c2cccc(Cl)c2)no1` (centres undefined) the Potency was inconclusive: 20 µM [quencher, partial curve].
For `COCCCn1cnc2oc3nc4ccccc4nc3c2c1=O`, the Potency was inconclusive: 11.2 µM [quencher, side channel, partial curve].
For `CC(C)(C)CN1CCNC(=O)C1CC(=O)NCCc1cnn(-c2ccccc2)c1` (centres undefined), the “activity change, negative = inhibition” value was inactive: 17.7%.
For `Cc1c([N+](=O)[O-])cc(C(=O)NCc2ccc(F)cc2)cc1[N+](=O)[O-]`, the Potency was inconclusive: 14.1 µM [quencher, side channel, partial curve].
In the case of `Nc1nonc1-n1nnc(C(=O)N/N=C/c2ccncc2)c1CSc1ccccc1`, the “activity change, negative = inhibition” value is reported as inactive: 19.7%.
With `O=C1CC(=O)C(n2cncn2)C(c2ccc(Cl)cc2Cl)C1` (centres undefined) the Potency was inconclusive: 8.91 µM [quencher, side channel, single point].
`Cc1cccnc1NC(=O)Cn1nc(-c2ccccc2)oc1=S` was tested, and the Potency was inconclusive: 35.5 µM [fluorescent, side channel, partial curve].
With `CC(=O)Nc1ccc(Nc2ncc([N+](=O)[O-])c(Nc3ccc(NC(C)=O)cc3)n2)cc1` the Potency was inconclusive: 3.16 µM [quencher, side channel, full curve].
In the case of `CCOC(=O)/C(C#N)=C/c1ccc(OC)c(OC)c1`, the Potency is reported as inconclusive: 28.2 µM [quencher, side channel, single point].
`O=C(NCc1ccccn1)C(C(=O)c1cccc([N+](=O)[O-])c1)n1cc(Cl)ccc1=O` (centres undefined) was tested, and the Potency was inconclusive: 28.2 µM [quencher, side channel, single point].
In the case of `COc1ccc(/C=C/c2ccc3ccccc3[n+]2C)cc1OC`, the Potency is reported as inconclusive: 22.4 µM [quencher, side channel, partial curve].
`Cc1ccc(-c2nnn(CC(=O)NCC3COCCO3)n2)o1` (centres undefined) was tested, and the “activity change, negative = inhibition” value was inactive: 5.35%.
For `CCOCCCn1c(=N)c(S(=O)(=O)c2ccc(C)cc2)cc2c(=O)n3cc(C)ccc3nc21`, the Potency was inconclusive: 4.47 µM [quencher, side channel, partial curve].
For `CCOc1ccc(C2C(C(=O)c3ccc(C)o3)=C(O)C(=O)N2c2cc(C)on2)cc1OC` (centres undefined), the Potency was inconclusive: 20 µM [quencher, partial curve].
`CCCCNC(=O)c1nnn(-c2ccccc2)c1N` was tested, and the Potency was inconclusive: 8.91 µM [quencher, side channel, single point].
For `Cc1ccc2cc3cc(C(=O)N4CCCCC4C)oc3nc2c1` (centres undefined), the Potency was inconclusive: 7.08 µM [quencher, side channel, partial curve].
In the case of `O=Cc1c(N2CCN(c3ccccc3)CC2)nc2ccccn2c1=O`, the Potency is reported as inconclusive: 31.6 µM [quencher, side channel, partial curve].
